# Data from US20110124501A1, “Active compound combinations” (Bayer CropScience AG, priority 2009, published 2011).
# “And” between values parts separate entries of the source, which are not always exact repeats. Equal entries are not always repeated.
# What was measured:
# Puccinia triticina = experiment: Puccinia triticina-test (wheat)/preventive; settings: preventive, evaluated 8 days after inoculation
# Procedure: Puccinia triticina-Test (Wheat)/Preventive • Solvent: 49 parts by weight of n,n-dimethylacetamid • Emulsifier: 1 part by weight of alkylaryl polyglycol ether
# (§1) To produce a suitable preparation of active compound, 1 part by weight of active compound or active compound combination is mixed with the stated amounts of solvent and emulsifier, and the concentrate is diluted with water to the desired concentration.
# (§2) To test for preventive activity, young plants are sprayed with the preparation of active compound or active compound combination at the stated rate of application.
# After the spray coating has been dried, the plants are sprayed with a spore suspension of Puccinia triticina. The plants remain for 48 hours in an incubation cabinet at approximately 20° C. and a relative atmospheric humidity of approximately 100%.
# The plants are placed in the greenhouse at a temperature of approximately 20° C. and a relative atmospheric humidity of approximately 80%.
# The test is evaluated 8 days after the inoculation. 0% means an efficacy which corresponds to that of the untreated control, while an efficacy of 100% means that no disease is observed.
# Plasmopara viticola = experiment: Plasmopara test (grapevines)/preventive
# Procedure: Plasmopara Test (Grapevines)/Preventive
# (§3) • Solvent: 24.5 parts by weight of acetone • 24.5 parts by weight of dimethylacetamide • Emulsifier: 1 part by weight of alkylaryl polyglycol ether
# (§4) To produce a suitable preparation of active compound, 1 part by weight of active compound is mixed with the stated amounts of solvent and emulsifier, and the concentrate is diluted with water to the desired concentration.
# To test for preventive activity, young plants are sprayed with the preparation of active compound at the stated rate of application. After the spray coating has dried on, the plants are inoculated with an aqueous spore suspension of Plasmopara viticola and then remain for 1 day in an incubation cabinet at approximately 20° C. and a relative atmospheric humidity of 100%. The plant is subsequently placed for 4 days in a greenhouse at approximately 21° C. and a relative atmospheric humidity of approximately 90%. The plants are then misted and placed for 1 day in an incubation cabinet.
# The test is evaluated 6 days after the inoculation. 0% means an efficacy which corresponds to that of the untreated control, while an efficacy of 100% means that no disease is observed.
# Sphaerotheca fuliginea = experiment: Sphaerotheca test (cucumbers)/preventive
# Procedure: Sphaerotheca Test (Cucumbers)/Preventive
# as §3
# To produce a suitable preparation of active compound, 1 part by weight of active compound is mixed with the stated amounts of solvent and emulsifier, and the concentrate is diluted with water to the de-sired concentration.
# (§5) To test for protect activity, young plants are sprayed with the preparation of active compound at the stated rate of application. After the spray coating has dried on, the plants are inoculated with an aqueous spore suspension of Sphaerotheca fuliginea. The plants are then placed in a greenhouse at approximately 23° C. and a relative atmospheric humidity of approximately 70%.
# The test is evaluated 7 days after the inoculation. 0% means an efficacy which corresponds to that of the untreated control, while an efficacy of 100% means that no disease is observed.
# Septoria tritici = experiment: Septoria tritici-test (wheat)/preventive; settings: preventive, evaluated 21 days after inoculation
# Procedure: Septoria tritici-Test (Wheat)/Preventive • Solvent: 49 parts by weight of n,n-dimethylacetamid • Emulsifier: 1 part by weight of alkylaryl polyglycol ether
# as §1, §2
# After the spray coating has been dried, the plants are sprayed with a spore suspension of Septoria tritici. The plants remain for 48 hours in an incubation cabinet at approximately 20° C. and a relative atmospheric humidity of approximately 100% and afterwards for 60 hours at approximately 15° C. in a translucent incubation cabinet at a relative atmospheric humidity of approximately 100%.
# The plants are placed in the greenhouse at a temperature of approximately 15° C. and a relative atmospheric humidity of approximately 80%.
# The test is evaluated 21 days after the inoculation. 0% means an efficacy which corresponds to that of the untreated control, while an efficacy of 100% means that no disease is observed.
# Botrytis cinerea = experiment: Botrytis test (beans)/preventive
# Procedure: Botrytis Test (Beans)/Preventive
# as §3, §4
# To test for preventive activity, young plants are sprayed with the preparation of active compound. After the spray coating has dried on, 2 small pieces of agar covered with growth of Botrytis cinerea are placed on each leaf. The inoculated plants are placed in a darkened chamber at 20° C. and a relative atmospheric humidity of 100%.
# 2 days after the inoculation, the size of the lesions on the leaves is evaluated. 0% means an efficacy which corresponds to that of the untreated control, while an efficacy of 100% means that no disease is observed.
# [1] = system: Blumeria graminis fsp. hordei; experiment: Blumeria test (barley)/preventive; type: in vivo; settings: application rate 1000 ppm a.i.
# Text: After the spray coating has been dried, the plants are dusted with spores of Blumeria graminis fsp. hordei.
# Alternaria solani = experiment: Alternaria test (tomatoes)/preventive
# Procedure: Alternaria Test (Tomatoes)/Preventive
# as §3, §4
# as §5, with “preventive” for “protect”, “Alternaria solani.” for “Sphaerotheca fuliginea.”, “an incubation cabinet” for “a greenhouse”, “20°” for “23°”, “100%.” for “approximately 70%.”
# The test is evaluated 3 days after the inoculation. 0% means an efficacy which corresponds to that of the untreated control while an efficacy of 100% means that no disease is observed.
# Venturia inaequalis = experiment: Venturia test (apples)/preventive
# Procedure: Venturia Test (Apples)/Preventive
# as §3, §4
# To test for preventive activity, young plants are sprayed with the preparation of active compound at the stated rate of application. After the spray coating has dried on, the plants are inoculated with an aqueous conidia suspension of the causal agent of apple scab (Venturia inaequalis) and then remain for 1 day in an incubation cabinet at approximately 20° C. and a relative atmospheric humidity of 100%.
# The plants are then placed in a greenhouse at approximately 21° C. and a relative atmospheric humidity of approximately 90%.
# The test is evaluated 10 days after the inoculation. 0% means an efficacy which corresponds to that of the untreated control, while an efficacy of 100% means that no disease is observed.
substance,measurement,setting,value
"(1R)-1,2,3,4-tetrahydronaphthalen-1-yl 2-(1-{[3,5-bis(difluoromethyl)-1H-pyrazol-1-yl]acetyl}piperidin-4-yl)-1,3-thiazole-4-carboxylate [(I-8)]",Efficacy in % found,Puccinia triticina; 500 ppm a.i.,0%
same,Efficacy in % found,Puccinia triticina; 1000 ppm a.i.,0%
same,Efficacy in % found,Plasmopara viticola; application rate 0.2 ppm a.i.,40%
same,Efficacy in % found,Plasmopara viticola; application rate 0.4 ppm a.i.,33% and 43%
same,Efficacy in % found,Sphaerotheca fuliginea; application rate 25 ppm a.i.,0%
same,Efficacy in % found,Sphaerotheca fuliginea; application rate 50 ppm a.i.,30%
same,Efficacy in % found,Septoria tritici; 500 ppm a.i.,0%
same,Efficacy in % found,Septoria tritici; 1000 ppm a.i.,0%
same,Efficacy in % found,Botrytis cinerea; application rate 50 ppm a.i.,0%
same,Efficacy in % found,Botrytis cinerea; application rate 200 ppm a.i.,0%
same,Efficacy in % found,[1],33%
same,Efficacy in % found,Alternaria solani; application rate 25 ppm a.i.,0%
same,Efficacy in % found,Alternaria solani; application rate 100 ppm a.i.,15%
same,Efficacy in % found,Alternaria solani; application rate 200 ppm a.i.,0%
same,Efficacy in % found,Venturia inaequalis; application rate 25 ppm a.i.,0%
same,Efficacy in % found,Venturia inaequalis; application rate 50 ppm a.i.,0%
same,Efficacy in % found,Venturia inaequalis; application rate 200 ppm a.i.,15%
